According to PubChem BioAssay AID652104 (National Center for Advancing Translational Sciences (NCATS), 2013):
About 7,200 (1.8%) of roughly 410,000 compounds were called active. This list was built around the results that the source calls inconclusive (neither active nor inactive); the mix of calls is not that of the screen. The call rests on the fitted dose curve; in most records, active means well fitted activation curve with a large enough effect; inconclusive means small, poorly fitted or top-dose-only effect, or another doubt; inactive means no such curve, though single readings can be large or run the other way. No potency is given beside an inconclusive call; the fits are too rough.

Assay: qHTS of TDP-43 Inhibitors; further: nearly all actives have a fitted effect of over 50% in size; on growth rescue (activation): % of control where 0% means no effect
Settings: TDP-43 expressing yeast growth rescue, BacTiter-Glo, 24 h; growth rescue (activation): at 46.1 µM (top of the series) unless noted
In short: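 Luminescence from BacTiter-Glo reports growth of TDP-43-expressing yeast after 24 hr at 30 deg C with compound. Cells were raffinose-pregrown to mid-log, then seeded in galactose medium at OD600=0.02.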
Potency means the concentration at half of the fitted maximal effect; tags describe the fitted curve by direction and shape.

Compound | Potency | growth rescue (activation)
COc1cccc(CNC(=S)Nc2ccc(Cl)cc2C)c1 | inconclusive [activator, single point] | –
CC(/C=C/c1ccco1)=N/NC(=O)C1COc2ccccc2O1 (stereo not given) | inactive | –
CCn1c(SCC(=O)NNC(=O)c2ccc(C)cc2)nnc1-c1ccco1 | inactive | –
CCCS(=O)(=O)N1CC(=O)N(c2ccc(C)c(Cl)c2)C(C)(C(=O)NC2CCCCCC2)C1 (stereo not given) | inactive | –
Cc1ccc(Cc2c(-c3ccco3)nc3ccc(C)cn23)cc1 | inconclusive [activator, single point] | –
CCc1ccc(-n2nc(CO)c(C(=O)NC)n2)cc1 | inconclusive [activator, full curve, poor fit] | –
CC(C)CC1C(=O)N(Cc2cn(CCC3OCCO3)nn2)CCS(=O)(=O)N1Cc1ccc(-c2ccc(F)cc2)cc1 (stereo not given) | inconclusive [activator, single point] | –
Cc1ccc(CS(=O)(=O)c2ncc(Cl)c(C(=O)Nc3nnc(C(C)C)s3)n2)cc1 | active: 14.1 µM | –
CN(C)CCNC(=O)c1ccc(Cl)s1 | inactive | –
Nc1ccc2nn(-c3cc([N+](=O)[O-])ccc3O)nc2c1 | inconclusive [activator, partial curve, poor fit] | –
CCC(=O)N1CCc2cc(CNS(=O)(=O)c3ccc(CC(C)C)cc3)ccc21 | inconclusive [activator, single point] | –
CCC1CCc2sc(C(=O)NNC(=S)NCC3CCCO3)cc2C1 (stereo not given) | inconclusive [activator, partial curve] | –
CCOc1ccccc1N1CCN(C2=C(NS(=O)(=O)c3cccs3)C(=O)c3ccccc3C2=O)CC1 | inconclusive [activator, single point] | –
CC1(C)C(=O)C=CC(=O)C(C)(C)C(=O)C=CC(=O)C(C)(C)C2=CC=C(O2)C(C)(C)C(=O)C=CC1=O | active: 15.8 µM | –
Cc1nc(-c2ccc(F)cc2)sc1CCNC(=O)c1cccs1 | active: 8.91 µM | –
O=C(O)CSc1nc(-c2ccc(Cl)cc2)nc2c1oc1ccccc12 | inactive | –
Cc1ccc(-c2ccc(/C=C3\SC(N4CCOCC4)=NC3=O)o2)cc1 | inconclusive [activator, single point] | –
O=C1Nc2cc(C(F)(F)F)ccc2N2CCCCC12 (stereo not given) | inconclusive [activator, partial curve] | –
CCOC(=O)c1c(N)n(-c2ccc(CC)cc2)c2nc3ccccc3nc12 | inconclusive [activator, partial curve] | –
N#Cc1ccsc1NC(=O)COC(=O)CCCSc1nc2ccccc2s1 | inconclusive [activator, single point] | –
Cc1ccc(C(=O)Nc2nccc(-c3cccs3)n2)cc1 | active: 12.6 µM | –
CCC(C)NC(=O)C(=O)NCC1CCCN1CC (stereo not given) | inconclusive [activator, partial curve] | –
CCOC(=O)C1(Cc2cccc(Cl)c2)CCCN(C(=O)c2cc(C)on2)C1 (stereo not given) | inactive | –
COc1ccc(NC(=O)Nn2cnnc2)cc1OC | inactive | –

Compound | Potency | growth rescue (activation)
CNC(=S)N/N=C/c1cc(C)n(-c2ccc(Cl)c(Cl)c2)c1C | inconclusive [activator, single point] | –
CCn1c(=O)c2sccc2n2c(CCC(=O)Nc3ccc(F)cc3)nnc12 | inactive | –
Fc1ccc(-n2cc(-c3ccccc3)c3c(=S)nc[nH]c32)cc1 | inconclusive [activator, single point] | –
CCOc1ccc(N(CC(=O)Nc2ccc(OC)cc2)S(=O)(=O)c2ccc(Cl)cc2)cc1 | inactive | –
COCCNC(=O)[C@@H]1CSC2c3ccc(OC)c(OC)c3C(=O)N21 (stereo not given in full) | active: 2.82 µM | –
O=C(Nc1nnc(-c2ccccc2Cl)o1)c1nc2ccccc2s1 | – | inconclusive: -76.7% [activator]
CCOC(=O)c1[nH]c2c(c1Cc1ccccc1)C(=O)CC(c1ccccc1)C2 (stereo not given) | active: 12.6 µM | –
CCN1CCN(C(c2ccccc2Cl)c2sc3nc(-c4ccco4)nn3c2O)CC1 (stereo not given) | inactive | –
Fc1ccccc1CSc1nnc(-c2cccnc2)o1 | inconclusive [activator, partial curve] | –
O=C(O)CN1C(=O)c2cccc3c(Br)ccc1c23 | inactive | –
COc1cc(OC)cc(C(=O)N/N=C/c2ccc(OC)c(COc3ccc(F)cc3)c2)c1 | inconclusive [activator, partial curve] | –
NC(=O)C(c1ncc(C(F)(F)F)cc1Cl)c1c(Cl)cccc1Cl (stereo not given) | inconclusive [activator, full curve] | –
COc1ccc(C(C)(NC(C)=O)c2nc(-c3cccnc3)cs2)cc1 (stereo not given) | inconclusive [activator, full curve, poor fit] | –
COc1ccc(CNC(=O)CN2C(=O)CCn3nc(-c4cn(C)c5ccccc45)cc32)cc1 | inconclusive [activator, partial curve] | –
COc1cc(-n2c(=O)c3ccccc3n(Cc3cccc(Cl)c3)c2=O)cc(OC)c1OC | inactive | –
COc1ccc(CCN2C(=O)N(c3cccc(OC)c3)C(=O)C2CC(=O)Nc2ccccc2)cc1 (stereo not given) | inactive | –
CCOC(=O)c1ccc(Nc2cc(C)nc(-c3ccccc3)n2)cc1 | inconclusive [activator, partial curve, poor fit] | –
C/C(=N\NC(=S)NCc1ccccc1)c1ccc2ccccc2c1OC(F)F | inconclusive [activator, partial curve] | –
Oc1ccc(Br)cc1-c1ccn[nH]1 | active: 12.6 µM | –
CCN(CC)C(=O)c1[nH]cnc1C(=O)Nc1cccc(Cl)c1 | inconclusive [activator, single point] | –
Cc1nc(C)c(-c2ccc(SCC(=O)Nc3cccc(Cl)c3C)nn2)s1 | inconclusive [activator, single point] | –
O=C(c1ccc([N+](=O)[O-])s1)N1CCN(c2cccc(Cl)c2)CC1 | inactive | –
Cc1cc(C)c(C)c(OCC(=O)O/N=C(\N)c2ccncc2)c1 | inconclusive [activator, single point] | –
Clc1ccc(CSc2nnc(-c3cccnc3)n2Cc2ccco2)c(Cl)c1 | inconclusive [activator, single point] | –

Compound | Potency | growth rescue (activation)
O=C(c1cccc([N+](=O)[O-])c1)N1CCN(c2ccc(Nc3ccccc3)nn2)CC1 | inactive | –
Cc1ccc(OCC(=O)Nc2ccc(N3CCN(C(=O)c4ccco4)CC3)cc2)c(C)c1 | inconclusive [activator, single point] | –
CCOc1ccc(NCc2nnc(SCc3ccccc3Cl)n2-c2ccccc2)cc1 | inconclusive [activator, single point] | –
Cc1ccc(S(=O)(=O)N2CN(Cc3ccco3)c3nc4ccccc4nc32)cc1C | inactive | –
CCOC(=O)[C@H]1[C@H]2COc3ccc(Br)cc3[C@@H]2N2C(=O)CN(Cc3ccc(Cl)cc3)C(=O)[C@@]12C | inconclusive [activator, single point] | –
CCN1C(=O)/C(=C\c2ccncc2)SC1=Nc1ccc(C)c(C)c1 | active: 14.1 µM | –
CC1(c2ccccc2)NC(=O)N(CC(=O)Nc2ccc(N3CCOCC3)cc2N2CCOCC2)C1=O (stereo not given) | inconclusive [activator, single point] | –
COc1ccccc1NC(=O)CN1C(=O)C(c2ccc(F)cc2)=NC12CCCCC2 | inconclusive [activator, partial curve, poor fit] | –
O=C(CC[C@H]1O[C@@H](n2cnc3c(NC(=O)c4ccccc4)ncnc32)[C@H](O)[C@@H]1O)NCC1CCCCC1 | inconclusive [activator, single point] | –
COc1ccc(Cc2nnc(SCc3ccc([N+](=O)[O-])cc3)o2)cc1 | active: 17.8 µM | –
COc1ccc(/C=N/NC(=O)c2cccc([N+](=O)[O-])c2)cc1OS(=O)(=O)c1ccc(C)cc1 | inconclusive [activator, partial curve] | –
O=C(c1ccc(Cl)cc1)C1CCN(C(=O)C2CC2)CC1 | inconclusive [activator, single point] | –
CC(Oc1ccc(Cl)cc1Cl)c1nc(-c2ccccn2)no1 (stereo not given) | inconclusive [activator, single point] | –
O=C1C=C(c2ccccc2Oc2ccccc2)C[C@@H](c2ccc(F)cc2)C1 | inactive | –
CCOC(=O)C1=CCN(S(=O)(=O)c2ccccc2Cl)C1c1ccccc1 (stereo not given) | inconclusive [activator, single point] | –
CS(=O)(=O)c1ncc(Cl)c(C(=O)Nc2ccc3ccccc3c2)n1 | inconclusive [activator, single point] | –
O=C(CNC(=O)c1cccs1)NCC(=O)OCc1ccc(F)cc1 | inconclusive [activator, partial curve] | –
CCOc1cc(/C=C/c2ccc3cccc([N+](=O)[O-])c3n2)ccc1OCC(=O)N(C)C | inactive | –
Cc1c(C(=O)OCC(=O)N(C)Cc2ccccc2)oc2ccccc12 | inconclusive [activator, partial curve, poor fit] | –
C/C(=N\NC(=O)c1cc(-c2cccs2)nc2ccccc12)c1ccccn1 | active: 22.4 µM | –
COc1cccc(NC(=O)C2CCC(CNS(=O)(=O)c3csc(C(N)=O)c3)CC2)c1 (stereo not given) | inactive | –
Cc1nn2c(COc3ccc(NC(=O)C(C)C)cc3)nnc2c2ccccc12 | inactive | –
